This is an account of results in the supplement of paper PMC10126150.

Values marked as one replicate rest on one cluster of the flow cell; about a third of the high ones do not repeat.
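Also: ATP exposure 15 min at 22 °C before imaging.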

In the data set the test system is ATP. Kind of data set: switch fluorescence ratio, 500 uM ATP over buffer (Cy3 cluster intensity, sum of 5 cycles each) (fold (ratio)); higher = stronger signal-on switching upon ATP binding; sequences stand for … in TCGTCGGCAGCGTCAGATGTGTATAAGAGACAGTTTTTTTTTTTTTTTTTTTTTTTTT…TC. Particulars: aptamer strand: ATP DNA aptamer (quencher-CACCTGGGGGAGTATTGCGGAGGAAGG + anchor), 100 nM annealed; ATP concentration: 500 uM; one replicate. The method in brief:
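Imaging in selection buffer was followed by imaging after 15 min with 500 uM ATP at 22 °C, for Cy3-labelled switching-strand clusters annealed to 100 nM quencher-labelled ATP aptamer on a modified Illumina MiSeq flow-cell. Five of these buffer/ATP cycles ran, separated by NaOH stripping and re-annealing. The fluorescence ratio per cluster is summed target-cycle over summed buffer-cycle Cy3 intensity, averaged per switch-domain sequence; clusters outside 100-1000 RFU were removed.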
As to ACCACCCCTT, the switch fluorescence ratio was determined as 1.06. The value for TGTGGGATGC was 0.991.

For the sequence CTTCTCTTA, the switch fluorescence ratio worked out at 0.963. With CATTCCATCT, the switch fluorescence ratio came out at 1.03. The value for AAATAAGCCT was 1.01. Next, TTGGAGGATG: 1.03. Next, TCAAACCCAA: 1.03; TAGGGTGCAT: 1.04. Turning to CAAAGCACGG, the switch fluorescence ratio was found to be 1.14. Next, AGAAAACGGC: 0.992; AAGAGTTTAG: 0.996. The value for GAAGCGAGTC was 1.28; that for TTTTACGCCA was 1.96; that for GAATAAGTTC was 0.992. As for GCCTTGACCA, the switch fluorescence ratio was found to be 0.999. Next, TTTAGCTAGC: 0.981. With TGCAACGTTG, the switch fluorescence ratio was 0.967. The value for GTTAAAGCAG was 1; that for TCCTAACTCT was 1.07; that for TACGCAGAGG was 1.23. As for CGGGACAGCA, the switch fluorescence ratio was 0.983.

Turning to CCCAGAAATA, the switch fluorescence ratio turned out to be 1.19. The value for GATATAGGTA was 0.996; that for ACTTTGCGTA was 1.01; that for CGAACGAGAG was 1.09. Next, ACATCTACGG: 1.23; ATACTTCCCC: 2.83; GCCAATTGAC: 1.09. Next, GGGCCTTGTG: 0.951; TGGCCCCGAA: 0.979. With TTCTGTAGTT, the switch fluorescence ratio worked out at 1.01. The value for AGGGGCTTT was 0.999. In the case of GAATATTATC, the switch fluorescence ratio came out at 1.01. Next, GGTTAAGGAC: 0.991; TACACCGTTA: 1.07; GGCTCCTTAT: 1.04.

For CGACATGAGC, the switch fluorescence ratio is 1.06. The value for TAATCCAGGT was 1.11. Next, TAATACGTT: 0.999. Next, TGTTGGCC: 0.985.

As to AGGCAATGAT, the switch fluorescence ratio came to 1.1. The value for CAGCCTCGAG was 0.991. Next, ATAATCAATG: 0.984; GAATAAGGAT: 1.02. The value for AAAACGGTAG was 0.991; that for GCCTACGGTC was 1.04; that for CGCGGAAATG was 1.

Turning to GATAGAGCTC, the switch fluorescence ratio amounted to 0.991.

As for AGTGACAGGA, the switch fluorescence ratio worked out at 0.998.

As to GGCCGTT, the switch fluorescence ratio was 0.974. For TCGACCGTAC, the switch fluorescence ratio was 2.28. Next, GGTTAGAGCA: 1.01.

Take TCAGAGGGTC: the switch fluorescence ratio turned out to be 0.925. Regarding TGCGGGACGG, the switch fluorescence ratio was 1.02. The value for CCCCGGTAGA was 1.14.

Turning to TTAAATTTAG, the switch fluorescence ratio was determined as 0.988.

Take TATGGTATGA: the switch fluorescence ratio was 0.924.

With TACAGGTGAA, the switch fluorescence ratio came out at 1.78. Next, CCAAGGGGGT: 1.4; GAAGAAGTTT: 0.987. For the sequence CGCGCTTTTT, the switch fluorescence ratio is 1. The value for TGGACTCAAC was 1.09; that for ATATTCAG was 1.02. The value for AGTAAGCGCG was 0.913; that for TACGGTAATC was 1.13. Next, TAAGAGTTGT: 1.01; ATTTTGCACT: 1.03. Regarding CTTACATTAG, the switch fluorescence ratio turned out to be 1.03. The value for CCTGGTCTTA was 0.975.

ATCAGCCAG: the switch fluorescence ratio is 1.01. With CATTGAAGGA, the switch fluorescence ratio stood at 0.986. Next, CATTAT: 1.05. Next, CTTTGACGTC: 1.02; ATATATTCAG: 1.02; AGCCGGTTAC: 1.2. With GGAGAGCAAG, the switch fluorescence ratio came out at 1.07. In the case of AACCCGGCCG, the switch fluorescence ratio worked out at 0.985. Regarding CTAGGAGTC, the switch fluorescence ratio came to 0.995. Next, ATCGAGGAGA: 1.01; GCCTTATGGT: 0.975.

As for AATCACATGG, the switch fluorescence ratio stood at 0.96. As for GTGGTTATAC, the switch fluorescence ratio is 1.1.

For AGAGCCCCAT, the switch fluorescence ratio worked out at 0.956. Next, TACTCAGGGC: 1.04. Next, CAGTTCTAGC: 0.968; CCCCGAATAA: 3.57; ATGTTCTTAC: 1.03. Next, CTTCGGTTGA: 0.98; TCGCGACGGT: 1.03; CATGGGTGGC: 0.948. Turning to GACACAACGA, the switch fluorescence ratio worked out at 1.18. As to CCCCATGCGC, the switch fluorescence ratio was 1.17. Next, CACTTCCGGA: 1.12; CTTCTGGGTG: 1.07; TGGAAAATAG: 0.965.

In the case of TCACATCGGC, the switch fluorescence ratio was 0.998.

With TCTAGAGCCT, the switch fluorescence ratio amounted to 1.07.

With GTGGAGGCCT, the switch fluorescence ratio was 1.

TTTCCTTTCG: the switch fluorescence ratio was found to be 1.08.

Regarding CACTCTAGGG, the switch fluorescence ratio turned out to be 0.982. Next, GCTTGACCTT: 1.03; TGATCCTTTT: 0.989.

For the sequence CATTGTGTTC, the switch fluorescence ratio worked out at 1.06. The value for AGATAGTTTC was 1.01. In the case of ATGGTCAGCT, the switch fluorescence ratio is 1.01.

Take GGGACTTGTA: the switch fluorescence ratio was 0.995. The value for GTTGCCCTAG was 1.01. For CAGGAAAAGG, the switch fluorescence ratio was 1.08. Take CTTATTGAG: the switch fluorescence ratio turned out to be 1.03. Next, ATTATACAA: 0.974; CCTAGGGATC: 1.06; AACCGATTTG: 0.968.

With CTTATATTAT, the switch fluorescence ratio stood at 0.998.

For TATATCTTGG, the switch fluorescence ratio amounted to 1.04. Next, TCTAATAACA: 0.99; TATATCATTA: 0.974; TAAAGCTGTT: 1.07. The value for GAGATGGCTG was 0.984; that for CCTCTTTAAA was 1.54.

Consider ATCGCTTAG, for which the switch fluorescence ratio turned out to be 1.13.
